Data reported in PubChem BioAssay AID624418 (National Center for Advancing Translational Sciences (NCATS), 2012).
Among all 410,000 compounds or so, about 530 (0.13%) were called active. The shares of active, inactive and inconclusive entries below differ from those in the screen. Calls come from the whole dose curve; as a rule, active = well fitted inhibition curve with a large enough effect; inconclusive = small, poorly fitted or top-dose-only effect, or another doubt; inactive = no such curve, though single readings can be large or run the other way. Potencies beside an inconclusive call are fits to weak or partial responses and may not hold up.

Assay: qHTS of GLP-1 Receptor Inverse Agonists: Cytotox Screen
Conditions: HEK293 cAMP-luciferase reporter cells, luminescence, 24 h; activity change, negative = inhibition: at 38.3 µM (top of the series) unless noted
Procedure, shortened: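 Here, cytotoxicity is scored as loss of luminescence. The MLSMR collection was tested on cells seeded in medium containing 10% Nu serum, with a 24 hr compound exposure preceded by 12 hours of culture.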
% is set by controls: 0 for no effect and ±100 for the full control effect; potency is the fitted concentration of half-maximal effect.

Row | Compound | Potency | activity change, negative = inhibition
1 | Fc1ccc(CNC(=S)NC2CCCC2)cc1 | inconclusive: 14.1 µM [inhibitor, single point] | –
2 | CCOC(=O)c1sc(-c2ccccc2)cc1N | inactive | –
3 | COc1ccc(CNC(=O)[C@@H](NC(=O)C2CCN(C(=O)[C@@H](N)Cc3ccccc3)CC2)C(C)C)cc1 | inactive | –
4 | C=C(C)C1CC=C(C)/C(=N/NC(=S)Nc2ccccc2)C1 (configuration not stated) | inconclusive: 12.6 µM [inhibitor, single point] | –
5 | O=C(Nc1ccccc1)c1ccccc1NS(=O)(=O)c1ccc(Cl)s1 | inconclusive: 12.6 µM [inhibitor, single point] | –
6 | Oc1c(Cl)cc(Cl)cc1/C=N/Nc1ncc(Br)cn1 | inconclusive: 0.501 µM [inhibitor, full curve, poor fit] | –
7 | Cc1cc(C(=O)Nc2cc(C(C)(C)C)on2)c(C)o1 | inactive | –
8 | OCCC1CN(Cc2ccc3cccc(F)c3n2)CCN1Cc1ccccc1 (configuration not stated) | inconclusive: 0.447 µM [inhibitor, full curve, poor fit] | –
9 | CCOC(=O)c1sc(N/N=C/c2cccc(C)c2)nc1C | inactive | –
10 | Cc1cc(C)cc(NC(=S)N=Nc2c(O)n(C)c3ccc(S(=O)(=O)N4CCOCC4)cc23)c1 | inconclusive: 1 µM [inhibitor, full curve, poor fit] | –
11 | C/C(=N\Nc1nc2ccccc2[nH]1)c1cccs1 | inconclusive: 28.2 µM [inhibitor, single point] | –
12 | COc1cc(-c2cc(C(=O)Nc3ccccc3N3CCOCC3)c3ccccc3n2)cc(OC)c1OC | – | inactive: 8.43% [at 7.66 µM]
13 | O=C(Nc1ccc(F)c(Cl)c1)N1CCCC1 | inactive | –
14 | N#Cc1ccccc1S(=O)(=O)N1CCN(c2nc(-c3cccnc3)nc3ccccc23)CC1 | inconclusive: 2 µM [inhibitor, full curve] | –
15 | Cc1cccc(Cc2c(C)nc3nc(SCc4cccc(F)c4)nn3c2C)c1 | inactive | –
16 | O=C(NNc1ccc(C2CCCCC2)cc1)C(O)(c1ccccc1)c1cccs1 (configuration not stated) | inconclusive: 11.2 µM [inhibitor, partial curve, poor fit] | –
17 | O=C(Nc1ccccc1)Nc1ccc(O)c2ccccc12 | inconclusive: 28.2 µM [inhibitor, single point] | –
18 | COc1ccc(N2CCN(CC(O)c3c[nH]c4ccc(OC)cc34)CC2C)cc1 (configuration not stated) | inconclusive: 14.1 µM [inhibitor, single point] | –
19 | CCN1C[C@@H]2[C@@H]3C(=O)N(Cc4ccccc4)C(=O)[C@@H]3[C@](C)(C1=O)N2C(=O)c1ccc(Br)cc1 | inconclusive: 6.31 µM [inhibitor, partial curve, poor fit] | –
20 | COc1ccc(/C=N/NC(=O)c2ccccc2)cc1OS(=O)(=O)c1ccccc1 | inconclusive: 28.2 µM [inhibitor, single point] | –
21 | CCOc1ccc2nc(NC(=O)c3ccccn3)sc2c1 | inconclusive: 1 µM [inhibitor, full curve, poor fit] | –
22 | O=C(CN(c1cccc(C(F)(F)F)c1)S(=O)(=O)c1ccccc1)Nc1cccc(Cl)c1 | inconclusive: 20 µM [inhibitor, partial curve, poor fit] | –
23 | COc1ccc(Cl)cc1NC(=O)Cn1nnc(C(=O)NCc2cccs2)c1N | inconclusive: 2 µM [inhibitor, full curve] | –

Row | Compound | Potency | activity change, negative = inhibition
24 | COc1ccc(/C=C2/SC(=S)N(CCCC(=O)Nc3ccc(O)cc3)C2=O)cc1OC | inconclusive: 8.91 µM [inhibitor, partial curve, poor fit] | –
25 | COc1cccc(C(C)(O)c2nc(-c3ccc(Cl)cc3)cs2)c1 (configuration not stated) | inactive | –
26 | COc1cc2c3nc4n(c(=O)c3n(CC(=O)N3CCCC3)c2cc1OC)CCS4 | inconclusive: 8.91 µM [inhibitor, partial curve] | –
27 | COc1cccc(-c2cc(C(=O)N3CCN(c4ncccn4)CC3)c3ccccc3n2)c1 | inconclusive: 22.4 µM [inhibitor, single point] | –
28 | CCOc1[nH]n(-c2ccc(Cl)cc2)c(=O)c1C=Nc1ccc(O)cc1 | inconclusive: 20 µM [inhibitor, partial curve, poor fit] | –
29 | O=C(CCl)Nc1ccc(N=Nc2ccccc2)cc1 | inconclusive: 14.1 µM [inhibitor, partial curve, poor fit] | –
30 | CSc1ccc(C2c3[nH]c4ccccc4c3CCN2C(=O)CCC2CCCC2)cc1 (configuration not stated) | inactive | –
31 | Cc1cccc(NC(=S)NC(=O)c2ccc(Br)o2)c1C | inactive | –
32 | COC(=O)c1cnn(-c2ccccc2)c1/C=N/NC(=S)Nc1ccccc1 | inconclusive: 10 µM [inhibitor, partial curve, poor fit] | –
33 | CCCN(CC(=O)Nc1ccc(F)c(F)c1F)C(=O)c1cc([N+](=O)[O-])ccc1N1CCOCC1 | inactive | –
34 | O=C(NC1CCCC1)C(c1ccc(F)cc1)N(Cc1ccc(F)cc1)C(=O)c1ccn[nH]1 (configuration not stated) | inconclusive: 5.62 µM [inhibitor, partial curve, poor fit] | –
35 | COc1ccccc1-n1cnc2cc(NC(=O)c3ccco3)ccc21 | inconclusive: 6.31 µM [inhibitor, partial curve, poor fit] | –
36 | Cc1ccccc1-c1cc(C(=O)Nc2sc(C(=O)OC(C)C)c(C)c2C#N)c2ccccc2n1 | inconclusive: 4.47 µM [inhibitor, partial curve] | –
37 | CC1=NN(C(=O)c2ccc(Cn3ccc([N+](=O)[O-])n3)cc2)C(O)(C(F)(F)F)C1 (configuration not stated) | inconclusive: 8.91 µM [inhibitor, partial curve, poor fit] | –
38 | Cc1nc2scc(C)n2c(=O)c1S(=O)(=O)N1CCN(c2ccccn2)CC1 | inconclusive: 28.2 µM [inhibitor, single point] | –
39 | CCCCCC1CC1C(=O)N/N=C/c1ccc(N(C)C)cc1 (configuration not stated) | inactive | –
40 | C=CC[C@H](CC(=O)N(CCO)Cc1ccccc1)C(=O)N[C@@H](COC(=O)[C@H](CC=C)CC(=O)OC(C)(C)C)Cc1c[nH]c2ccccc12 | inactive | –
41 | CCOC(=O)CN(C(=O)COc1nc(C)cc(C)c1C#N)c1cccc(Cl)c1 | inconclusive: 20 µM [inhibitor, single point] | –
42 | CCOc1ccc(-c2[nH]ncc2Oc2ccccc2OC)c(O)c1 | inconclusive: 10 µM [inhibitor, single point] | –
43 | CCc1nnc(NC(=O)c2ccc(OC)cc2OC)s1 | inactive | –
44 | Cc1ccsc1/C=N/NC(=O)c1cccs1 | inconclusive: 14.1 µM [inhibitor, single point] | –
45 | O=C(NCc1ccccc1)c1cc(C2COCCN2C(=O)OCCF)on1 (configuration not stated) | inactive | –
46 | Cc1nn(-c2ccccc2)c(Cl)c1/C=N/Nc1ccc(S(=O)(=O)Nc2ccccc2C(=O)O)cc1[N+](=O)[O-] | inconclusive: 28.2 µM [inhibitor, single point] | –

Row | Compound | Potency | activity change, negative = inhibition
47 | CCCNC(=S)N1CCN(C(c2ccccc2)c2ccccc2)CC1 | inactive | –
48 | CCCCC[C@@H](C)N1C[C@@H](COCc2ccccc2)Oc2cc(N3CC[C@H](O)C3)ccc2S1(=O)=O | inactive | –
49 | CC1=Nc2cc(C(=O)NCc3ccco3)ccc2Sc2ccc(C)cc21 | inconclusive: 0.501 µM [inhibitor, full curve, poor fit] | –
50 | O=C(c1cccs1)N1CCN=C1SCc1ccc(F)cc1 | inactive | –
51 | O=C(NCC(c1cccs1)N1CCOCC1)c1ccc(Cl)s1 (configuration not stated) | inconclusive: 6.31 µM [inhibitor, partial curve, poor fit] | –
52 | CC(C)(C)c1cc(NCCCn2ccnc2)n2ncc(-c3ccc(Cl)cc3)c2n1 | inconclusive: 28.2 µM [inhibitor, single point] | –
53 | O=S(=O)(Nc1c(O)ccc2ccccc12)c1ccc(F)cc1 | inconclusive: 2.51 µM [inhibitor, partial curve, poor fit] | –
54 | CC(C)CNc1cc(NC2CCCCC2)c2c3c(onc13)-c1ccccc1C2=O | inconclusive: 28.2 µM [inhibitor, single point] | –
55 | Cc1ccccc1C([O-])=Nc1ccc[n+](-c2nc3ccccc3nc2NS(=O)(=O)c2ccccc2)c1 | inconclusive: 12.6 µM [inhibitor, single point] | –
56 | Cc1cccc(N2CCN(C(=O)CCCn3ncn4c(cc5occc54)c3=O)CC2)c1C | inactive | –
57 | Fc1ccccc1CNC(=S)NC1CCCCC1 | inactive | –
58 | Cc1ccc(C(=O)COC(=O)c2cnccn2)cc1[N+](=O)[O-] | inactive | –
59 | COc1cc2c(cc1OC)CN(c1ccc([N+](=O)[O-])cc1C#N)CC2 | inconclusive: 28.2 µM [inhibitor, single point] | –
60 | Cc1ccc(CCNS(=O)(=O)c2ccc3c(c2)CCN3C(=O)CCC(=O)O)cc1 | inactive | –
61 | COCCCNC(=S)N/N=C/c1ccc(N(C)C)cc1 | inconclusive: 20 µM [inhibitor, single point] | –
62 | CN(C(=O)c1ccc(S(=O)(=O)c2cccc(Cl)c2)c([N+](=O)[O-])c1)C1CCCCC1 | inconclusive: 17.8 µM [inhibitor, partial curve, poor fit] | –
63 | O=C(NNC(=O)c1cccs1)c1cccc(F)c1 | inconclusive: 28.2 µM [inhibitor, single point] | –
64 | O=S(=O)(c1ccc(Cl)cc1)c1nnn2c1nc(NCc1ccccc1)c1sccc12 | inactive | –
65 | CCNC(=S)N1CCC(Cc2ccccc2)CC1 | inactive | –
66 | O=c1ccc2ccccc2c2ccccc12 | inconclusive: 10 µM [inhibitor, partial curve, poor fit] | –
67 | Cc1nc(Cl)c(C(=O)NC(=O)Nc2cccc(C(F)(F)F)c2)c(C)c1[N+](=O)[O-] | inconclusive: 10 µM [inhibitor, partial curve, poor fit] | –
